The experiment concerns human CD45, cyno CD45 and rhesus CD45. In words: CD45 binding / species cross-reactivity of antibodies. Details: species or system cynomolgus.

B1: Ab5: human anti-CD45 antibody, VH SEQ ID NO:41, VL SEQ ID NO:45; heavy chain SEQ ID NO:49, light chain SEQ ID NO:50 (antibody)
heavy: EVQLVESGGGLVQPGGSLRLSCAASGFTFEAYSMNWVRQAPGKGLEWVSYISLSGATIHYADSVKGRFTISRDNAKNSLYLQMNSLRAEDTAVYYCARGGQYYYTSSDYGEVAFDIWGQGTMVTVSSASTKGPSVFPLAPSSKSTSGGTAALGCLVKDYFPEPVTVSWNSGALTSGVHTFPAVLQSSGLYSLSSVVTVPSSSLGTQTYICNVNHKPSNTKVDKKV[not shown - human IgG1 Fc with L234A L235A D265C H435A (EU numbers)]
light: DIVMTQSPLSLPVTPGEPASISCRSSQSLVSSGYNYLDWYLQKPGQSPQLLIYFGSSRASGVPDRFSGSGSGTDFTLKISRVEAEDVGVYYCMQRRRTPWSFGGGTKVEIKRTVAAPSVFIFPPSDEQLKSGTASVVCLLNNFYPREAKVQWKVDNALQSGNSQESVTEQDSKDSTYSLSSTLTLSKADYEKHKVYACEVTHQGLSSPVTKSFNRGEC
B1: the “cross-reactivity with CD45 of species (in words)” value is “cross reacts with human CD45, cyno CD45 and rhesus CD45”.

The record behind these values is US20260102505A1, “ANTI-CD45-IGN ANTIBODY DRUG CONJUGATES AND USES THEREOF” (Vor Biopharma Inc., priority 2022, published 2026).
